Source: PMC4336329 (PLoS ONE, 2015)
Among all 310,000 compounds or so, about 14,000 (4.5%) showed an effect of 50% or more. Effects have a minus sign here. Some of the results follow.

These compounds were tested against human ether-à-go-go-related gene (hERG) potassium channel (human, UniProt Q12809) (assay: primary screen, population patch clamp on CHO cells stably expressing hERG).
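Note: peak tail current of the secondary pulse compared with the same well before compound.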

Sequence of human ether-à-go-go-related gene (hERG) potassium channel (Q12809 whole entry, looked up): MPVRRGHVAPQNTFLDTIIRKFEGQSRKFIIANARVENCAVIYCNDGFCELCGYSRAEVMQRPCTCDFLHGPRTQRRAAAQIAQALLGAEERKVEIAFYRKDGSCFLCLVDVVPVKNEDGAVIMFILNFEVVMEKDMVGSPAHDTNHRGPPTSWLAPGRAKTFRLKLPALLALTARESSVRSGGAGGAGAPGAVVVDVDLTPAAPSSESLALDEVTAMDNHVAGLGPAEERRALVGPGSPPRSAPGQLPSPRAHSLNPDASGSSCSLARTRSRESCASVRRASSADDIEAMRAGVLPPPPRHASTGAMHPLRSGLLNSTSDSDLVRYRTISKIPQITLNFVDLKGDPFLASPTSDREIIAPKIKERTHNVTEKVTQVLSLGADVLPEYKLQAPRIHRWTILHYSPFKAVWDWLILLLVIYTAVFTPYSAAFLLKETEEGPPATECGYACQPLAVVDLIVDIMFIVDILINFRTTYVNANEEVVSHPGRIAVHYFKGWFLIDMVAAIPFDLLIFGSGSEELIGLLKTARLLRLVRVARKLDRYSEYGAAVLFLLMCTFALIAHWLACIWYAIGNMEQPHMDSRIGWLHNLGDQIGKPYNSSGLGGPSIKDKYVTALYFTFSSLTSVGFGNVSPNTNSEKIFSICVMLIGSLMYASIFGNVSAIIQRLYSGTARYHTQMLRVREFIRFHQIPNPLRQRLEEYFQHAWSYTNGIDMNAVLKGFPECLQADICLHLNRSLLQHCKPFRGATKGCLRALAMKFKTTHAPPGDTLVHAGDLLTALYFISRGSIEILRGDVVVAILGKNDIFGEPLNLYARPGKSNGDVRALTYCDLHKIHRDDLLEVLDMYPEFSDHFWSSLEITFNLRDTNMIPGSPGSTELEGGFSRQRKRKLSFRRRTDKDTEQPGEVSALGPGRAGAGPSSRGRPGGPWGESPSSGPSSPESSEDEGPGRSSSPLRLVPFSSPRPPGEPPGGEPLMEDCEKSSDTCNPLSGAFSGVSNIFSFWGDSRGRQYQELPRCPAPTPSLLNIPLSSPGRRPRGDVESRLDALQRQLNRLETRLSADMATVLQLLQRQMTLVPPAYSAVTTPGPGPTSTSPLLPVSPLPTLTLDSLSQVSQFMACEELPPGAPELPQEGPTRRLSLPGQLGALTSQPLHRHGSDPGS

Structure (SMILES)	hERG current change (%, negative = inhibition) at 10uM [%]
CCOc1ccccc1NS(=O)(=O)c1ccc(-n2cccn2)cc1	-5.38
CCOc1ccc(C(=O)CCC(=O)Nc2ccncc2)cc1	-4.97
COCCNC(=O)C(=O)NNS(=O)(=O)c1ccc2ccccc2c1	5.35
CCC(C)NC(=O)c1cc(C)no1 (stereo not drawn)	19.4
COC(=O)c1[nH]c2ccc(F)cc2c1NC(=O)CCN1CC(C)OC(C)C1 (stereo not drawn)	5.45
O=C(NC(=S)Nc1ccc(N2CCCCC2)cc1)c1ccco1	-14
CC1(C)CC(=O)N(CC(=O)O)c2ccccc2S1	15.7
CC(=O)c1cccc(NC(=O)C(CC(C)C)NC(=O)C2CCCCC2)c1 (stereo not drawn)	-4.77
COc1ccc(-n2nnnc2-c2ccc(S(C)(=O)=O)cc2Cl)cc1	2.44
O=C(NCCc1ccc(Cl)cc1)C1COc2ccccc2O1 (stereo not drawn)	-49.5
COc1ccccc1S(=O)(=O)Cc1ccc(C(=O)N2CCN(c3cccc(Cl)c3)CC2)o1	-31.1
O=C(O)c1ccc(-n2c(-c3cc(-c4ccco4)[nH]n3)n[nH]c2=S)cc1	12
CCOc1cc2[nH]c(=S)n(CCCCC(=O)NCc3ccco3)c(=O)c2cc1OCC	-6.51
COC(C(=O)N/N=C(\C)CC(=O)Nc1ccc(Cl)cc1C)c1ccccc1 (stereo not drawn)	-10.5
CCSc1nc2c(c(=O)[nH]1)C(C(C)C)C(C#N)=C(N)O2 (stereo not drawn)	5.71
CCCc1cc(=O)[nH]c(SCCc2ccccc2)n1	5.57
O=C(NCCN1CCOCC1)c1ccc(CS(=O)(=O)c2ccc(Br)cc2)o1	-2.9
O=C(CNS(=O)(=O)c1ccccc1)N1CCN(c2ccccc2)CC1	-5.22
Cc1ccc(C2=NN(C(=O)CSc3nccn3C)C(c3ccco3)C2)cc1 (stereo not drawn)	-30.2

Structure (SMILES)	hERG current change (%, negative = inhibition) at 10uM [%]
COc1cc(/C=c2\sc3n(c2=O)CCCN=3)ccc1O	12.3
CCN(CC)CCCNC(=O)c1cc2c(Cl)nc3ccccc3c2s1	-47.1
O=C(CCNS(=O)(=O)c1ccccc1)Nc1ccc(Cl)cc1C(=O)c1ccccc1	-32.9
Cc1cc(C)c(NC(=O)CN)c(C)c1.Cl	17.6
O=C(O)CSCC(=O)N(Cc1ccccc1)c1nc(-c2ccccc2)c(-c2ccccc2)s1	-3.61
Cc1ccccc1-n1c(SCC(=O)NCC2CCCO2)nc2c([nH]c3ccccc32)c1=O (stereo not drawn)	0.764
CCC(c1nnnn1CCc1ccccc1)N(Cc1ccco1)Cc1cc2c(C)ccc(C)c2[nH]c1=O (stereo not drawn)	10.4
O=C(Nc1nc2ccccc2[nH]1)c1ccc(OC(F)F)cc1	-11
COc1ccc2nc(Cl)c(C3CC(c4ccco4)=NN3C(=O)CCC(=O)O)cc2c1 (stereo not drawn)	-8.82
CC(CCc1ccccc1)NC(=O)CNc1cccc([N+](=O)[O-])c1 (stereo not drawn)	-30.1
CSc1nnc(NC(=O)C2CCCCC2)s1	5.07
CCCc1ccc(OCc2ccc(C(=O)N3CCSCC3)o2)cc1	-42.8
CCOC(=O)c1c(C)[nH]c(C(=O)NCCc2ccc(OC)c(OC)c2)c1C	-15.3
CCCOc1ccc(CNC(=O)C2CCN(C(=O)N3CCOc4ccccc43)CC2)cc1	-7.99
COc1ccc(C(=O)c2c(NC(C)=O)sc3c2CCN(C(=O)OC(C)(C)C)C3)cc1	-23.2
CCOc1cc(/C=C2\N=C(C)OC2=O)cc(Br)c1OCC(=O)OC	22.6
Cn1ccnc1Sc1cc(NCCCO)c([N+](=O)[O-])c2nonc12	-3.23
CCOC(=O)N1CCN(C(=S)Nc2cccc(C)c2)CC1	0.816
CCc1c(C)n2nc(C)cc2[nH]c1=O	-24.5

Structure (SMILES)	hERG current change (%, negative = inhibition) at 10uM [%]
CC(C)C(Nc1ccc(S(=O)(=O)N2CCOCC2)cc1[N+](=O)[O-])C(=O)O (stereo not drawn)	4.71
Cc1cc(C)n2nc(C(=O)OCC(=O)N3C(C)CCCC3C)nc2n1 (stereo not drawn)	21.5
O=C(COC(=O)C1CC2C=CC1C2)Nc1ccccc1 (stereo not drawn)	-2.43
Cc1c(NC(=O)CN2C(=O)C(=O)N(Cc3ccccc3)C2=O)c(=O)n(-c2ccccc2)n1C	29.8
Cc1ccccc1NC(=S)NCCc1c[nH]c2ccccc12	12
CN1OC(COC(=O)c2ccccc2)CC1c1ccccc1 (stereo not drawn)	-11.7
O=C(CSc1nnc(-c2ccncc2)n1C1CCCCC1)Nc1ccccc1	-14.7
Cc1nn(C2CCS(=O)(=O)C2)c(C)c1CN(C)C(=O)c1cccc(Cl)c1 (stereo not drawn)	-2.4
Cc1ccc(NC(=O)CSCC(=O)OC(C)C(=O)Nc2ccc(S(N)(=O)=O)cc2)c(C)c1 (stereo not drawn)	5.08
N/C(=N\c1nc2ccccc2o1)NC(=O)c1ccccc1F	-7.79
CC(C)NC(=O)C1CCN(c2ccc(S(=O)(=O)N3CCOCC3)cc2Cl)CC1	-0.695
CN1C(=O)C(CCC(N)=O)NC1=S (stereo not drawn)	8.73
CC1CCN(S(=O)(=O)c2ccc(NC(=O)Cn3nnc(-c4ccccc4F)n3)cc2)CC1	-8.32
COc1cc(CC2C(=O)N(C)C(=O)N(C)C2=O)ccc1OCc1ccccc1	-5.65
c1ccc2c(c1)Nc1ccccc1S2	11.5
CC(C)OC(=O)/C(C#N)=C/c1cn(Cc2ccccc2)c2ccccc12	-6.73
COc1ccccc1OCc1ccc(C(=O)N2CCN(C(=O)c3ccco3)CC2)cc1	-37.8
Cn1nc(-c2ccc(Cl)cc2)c2cc(C(=O)N3CCN(c4ccccc4)CC3)sc21	1.25
CN(C)S(=O)(=O)c1cccc(N=C2SCCN2Cc2ccccc2)c1	-16.3
